Measured values reported in the RNAGym collection of RNA variant scans (doi:10.7554/elife.90254).
The source gives no read counts; variants with many changes may rest on few reads.

B1: LINE1-full (parent)
chain: UACGUAGGUGGUUUUCCCCUGAUAGUGCUAAGGGGGCCUGGAAGUUUGGACUGGGCAGAGCUCAACACAGCGUGGCAAAGUGGCUGUGGCUAGACUGCCUCUCUGGAUUCCUCGUCACUCAGCAGGGCAUCUCUGAGAGAAAUGCC

Variants of: B1
Assay: self-cleavage, relative activity (ratio to wild type); higher = more cleavage; in vitro, sequencing; the parent is a self-cleaving ribozyme
U73G A79G U85A A92G U143A gave a self-cleavage of 0. U14A U45C U47C C51G showed a self-cleavage of 1.13. G55A A64G A94G showed a self-cleavage of 0.02. Variant U1A G33A A77G U100C U130C A141G has a self-cleavage of 0. In the case of A43G C76U U109C U134C, the self-cleavage is reported as 1.99. In the case of U46A A59G U73C G105A A140G, the self-cleavage is reported as 0. Variant G25C A42G A65G has a self-cleavage of 0.29. In the case of U46C A78G A121U A141G, the self-cleavage is reported as 1.3. U23A C56U U62C U132C gave a self-cleavage of 0.33. For U9C A22C G49U, the self-cleavage was 1.48. With U12C G53A A57U the self-cleavage was 0.09. In the case of A65G A67G U143C, the self-cleavage is reported as 0.19. Variant G4U A69U U109A has a self-cleavage of 0.07. Variant A117G U119C U130C has a self-cleavage of 0.61. A64U U119A U143A gave a self-cleavage of 0.56. Work on A42G C68G A92G yielded a self-cleavage of 0.04. For A69U U85C C113U, the self-cleavage was 0. For U46C U47C C98A U134A, the self-cleavage was 0.32. Work on A6G U14G G58C yielded a self-cleavage of 0.17. U9C U52C G53A A124G gave a self-cleavage of 0.31. In the case of U39A U85G U109A C128A, the self-cleavage is reported as 0.12. For U46C G88C U104C A124G, the self-cleavage was 0.39. Work on U9A A67U U91C yielded a self-cleavage of 0.07. For A43G A59G A69G, the self-cleavage was 0. A67G A78G U81C showed a self-cleavage of 0.51. In the case of A43C U47C A136U, the self-cleavage is reported as 1.47. Work on U14G U20C U81C A142G yielded a self-cleavage of 0. A22G G80A U109A U130C gave a self-cleavage of 1.97. For U13A A22G A138G, the self-cleavage was 1.02. U9C A69U A78G C131A showed a self-cleavage of 0.09. Work on G8U G58A U87A yielded a self-cleavage of 0.08. For A79G A124G A140G, the self-cleavage was 0.39. Variant U12C A64G A69U U115A U132C has a self-cleavage of 0.09. With A22G C101U C128U the self-cleavage was 0.85. With A30G G72A A140G the self-cleavage was 0.87. U15C A43G G83A gave a self-cleavage of 0.93. U13C U108A A129G showed a self-cleavage of 1.7. Work on U9C A43G U115C yielded a self-cleavage of 0.92. With U20C A67U G88A the self-cleavage was 0.01. For A67G A77U U108C, the self-cleavage was 0.08. In the case of U20G U45C A67G A107G, the self-cleavage is reported as 0. For U12C U26C U119A G125U A136G, the self-cleavage was 1.33. With C19A U62C U130C the self-cleavage was 0.05. G58U U73G U100A C123U A129G A141G gave a self-cleavage of 0. In the case of A117U A121U A136U, the self-cleavage is reported as 1.09. Work on U13C U23C A79U yielded a self-cleavage of 1.3. For U14C A57U U119C C128G, the self-cleavage was 0. In the case of U13C A22U U115A, the self-cleavage is reported as 0.32. Work on A43G U108C C145U yielded a self-cleavage of 0.92. G35U G40A U134C gave a self-cleavage of 1.37. In the case of U14C U109A U134C, the self-cleavage is reported as 1.54. With U14C A31G A59G G70A C145G the self-cleavage was 0.09. U29A A59G A124G showed a self-cleavage of 0.14. U39C A79U U100A gave a self-cleavage of 0.49. In the case of A2G U13C U15C A64U A69G U96A U109C, the self-cleavage is reported as 0.89. U12G U52A C103U gave a self-cleavage of 2.02. A42G U62A A65G U102C A117U showed a self-cleavage of 0. With C16U A43G C51U the self-cleavage was 1.35. Work on A92G U100A C103U yielded a self-cleavage of 0.1. A2G G32U U62C U104G U112A showed a self-cleavage of 0. Variant A6G G36A G44U A57U A78G U87A C118U has a self-cleavage of 0.07. Work on U5A U39C C61U U73C U112C A136G yielded a self-cleavage of 0.08. In the case of G54C U81C A140G, the self-cleavage is reported as 1.12. In the case of G11U U45C A67G C68A A78G U100A A142G, the self-cleavage is reported as 0.06. Variant U62A G74U A77G U96A has a self-cleavage of 0.01. In the case of U26G A79G U143C, the self-cleavage is reported as 0.52. Work on U13C A22G U85C G93U yielded a self-cleavage of 0.26. G49A C56U U96C G97U U130C showed a self-cleavage of 0. Variant U20C U46C U52C U134C has a self-cleavage of 2.55. In the case of A42G U47C C103A, the self-cleavage is reported as 1.36. U12C U96C A117C gave a self-cleavage of 0.2. In the case of U100C A117U A121U, the self-cleavage is reported as 1.95. With U1G A24G U52C the self-cleavage was 0.77. U9A A64U A77U showed a self-cleavage of 0.93. In the case of A43G A79G U134G, the self-cleavage is reported as 0.75. With A22G A107G A142U U143A the self-cleavage was 1.86. In the case of U13A U91A U143A, the self-cleavage is reported as 0.41. In the case of U52A U119A U134A, the self-cleavage is reported as 1.24. In the case of U1C U81C U96C A121C A138G, the self-cleavage is reported as 0.92. U13C U26A G74A gave a self-cleavage of 0.55. For U12C C51A U100C, the self-cleavage was 1.73. Variant U14C U62C A94G has a self-cleavage of 0. In the case of U13C A69U U100C U104C U115A, the self-cleavage is reported as 0. With C37A U134A A140G the self-cleavage was 0.46. With G40A U96C A121U the self-cleavage was 0.05. Variant U12C G34U U119C has a self-cleavage of 0.97. In the case of U13C A59U G88C U109A, the self-cleavage is reported as 0.07. In the case of C56U A57U U104C U132A, the self-cleavage is reported as 0.06. For G32A A42G U62A, the self-cleavage was 0.12. Variant U39A A77U U91C has a self-cleavage of 0.13. U13C U52C U85C gave a self-cleavage of 0.5. U9G A42U G48A U62C A140G showed a self-cleavage of 0.1. Work on A43G U73C U85C yielded a self-cleavage of 0. Work on A42G G75C A136G yielded a self-cleavage of 0.43. A24U C84A G127U U132A showed a self-cleavage of 0.1. Variant U14C U46G G55A G139A has a self-cleavage of 0.21. U14C U47C U81C gave a self-cleavage of 0. U39A A42G U73C U104A gave a self-cleavage of 2.04. Variant A22G G33C A67U A94G has a self-cleavage of 0.24. U14C A43G A107G showed a self-cleavage of 0.84. U9G A69G U143G gave a self-cleavage of 0.84. Work on U23C A65G A94U U112A A142C yielded a self-cleavage of 0.08. U20C A59G A65C U73A A94G showed a self-cleavage of 0. In the case of G83U A121U U132C, the self-cleavage is reported as 0.54. Variant U14C G34A A57U A79G A129U has a self-cleavage of 0.04. Work on U102A U119A A138G yielded a self-cleavage of 2.07. A50G U85C A140G showed a self-cleavage of 1.08. A43G C111U A141G showed a self-cleavage of 1.23. With A42G U46A U112A A117U A121G A142G the self-cleavage was 1.12. In the case of U46C U52A U62C A69C A124G, the self-cleavage is reported as 0.29. With U23C A57G A121G the self-cleavage was 0.82. U14C G53A A77U U109C U115C showed a self-cleavage of 1.25. For U132A A138G A140G, the self-cleavage was 1.61. A64U G126A U134C A138G gave a self-cleavage of 0.82. For U13C U14C A59G A140G, the self-cleavage was 0.14. With U1C U14C U130C the self-cleavage was 0.61. G25A U62G U91A U96A A136U gave a self-cleavage of 0.05. In the case of U81C G82A U104C A140G, the self-cleavage is reported as 1.8. U52C C61U C103U showed a self-cleavage of 0.04. Work on U13C U23C G40A A57G U100C U104A yielded a self-cleavage of 1.23. Variant G34A U39C U119C has a self-cleavage of 0.81. U5A A42G U134C showed a self-cleavage of 0.88. With A65G A77G U109C U112C C123U the self-cleavage was 0. With U9A U14C U104C C113U the self-cleavage was 2.43. U46C A67U A94G U112C A141G showed a self-cleavage of 0. Work on A43U U47A U108C C118A yielded a self-cleavage of 1.41. Variant U47A U104C A129G has a self-cleavage of 2.19. Variant A43G U73C A141G has a self-cleavage of 2.84. U15A U100C U104A A124C showed a self-cleavage of 2.63. With U23C G72A A94G the self-cleavage was 0.29. For U12G A22G U85A, the self-cleavage was 0.12. G40A A59G G83A U100C U108C gave a self-cleavage of 0.05. Work on A121U U132C A138G C145U yielded a self-cleavage of 1.37. Work on C16U U73C A136G yielded a self-cleavage of 1.91. For U47C G60A G72A A129G A141U, the self-cleavage was 0.03. In the case of U52C A67U G75A A79U A92G U119A, the self-cleavage is reported as 0.05. Variant A43G G75A U100C U115A U130C G144A has a self-cleavage of 1.69. With U45A U46C C84U A129G the self-cleavage was 0.25. U9A A42U A77G U100C U102C U143A showed a self-cleavage of 0. U12C A31U A64G A141G gave a self-cleavage of 0.82. Variant U46A U91C U130C U134A has a self-cleavage of 0. For U23C C56U A64U A67G U115C, the self-cleavage was 0.07. Work on A24U U46C U52C yielded a self-cleavage of 0. A31G G48A U62C gave a self-cleavage of 0.07. A59G U104C A138G showed a self-cleavage of 0.14. Work on G40A A50G G82A yielded a self-cleavage of 1.01. In the case of U45C U62A U104C U130C, the self-cleavage is reported as 0. For U46C C99A G105U, the self-cleavage was 0.48. U87A U104C A140U gave a self-cleavage of 0.44. Work on C19U U26C A79G U132C yielded a self-cleavage of 2.63. A42G U62A A124U A136G showed a self-cleavage of 0.07. With A117U G137A U143C the self-cleavage was 1.14. U39A A42G A69G U100A gave a self-cleavage of 0.34. For U9A A57G A59G U115A, the self-cleavage was 0. With U39C U46C A136C the self-cleavage was 1.72. In the case of G49U G55C A117U, the self-cleavage is reported as 0.03. Variant U14C U96A A136G U143C has a self-cleavage of 0.09. Work on U5C A67G G127U A142G yielded a self-cleavage of 0.24. With U39C U47A A94G G105A U115C the self-cleavage was 0. In the case of U47A U73A A140G U143C, the self-cleavage is reported as 1.34. In the case of C18U U45C U62A, the self-cleavage is reported as 0.06. Work on U15C G40A U46C A50U U102C U115C A124U yielded a self-cleavage of 0.92. With A43G A64U A79C the self-cleavage was 0.46. Variant U5C U104A A124C A129G has a self-cleavage of 0. G4C U15A G88U gave a self-cleavage of 0.07. Work on A22G A30U A65G yielded a self-cleavage of 0.23. With C19A G72A A121G the self-cleavage was 1.25.
